Read counts are not given, so values of variants with three or more changes are uncertain.

We go through 167 variants from the RNAGym collection of RNA variant scans (doi:10.7554/elife.90254).

B1: LINE1-mini (parent)
chain: GGCAGAGCUCAACACAGCGUGGCAAAGUGGCUGUGGCUAGACUGCC

In the series the parent is B1. Kind of series: self-cleavage, relative activity (ratio to wild type); higher = more cleavage; in vitro, sequencing; the parent is a self-cleaving ribozyme.
On to G2C C13A G22A A39C, for which the self-cleavage stood at 0.02.

Take G2C A14G U20A G27U G36A: the self-cleavage worked out at 0.01. In the case of G2A U9A C13A A14C A16C C23A C31U, the self-cleavage came to 0.04. Consider G2C A16C C18A, for which the self-cleavage came to 0. Turning to G2C A11U A12U C18G C31G U34C G35U, the self-cleavage amounted to 0.02. As to G2C A11U G22C G36A, the self-cleavage stood at 0.02.

Regarding G2C C3G G19U, the self-cleavage is 0.15. In the case of G2C C8G G33A U38G, the self-cleavage came out at 0.09. G2C A11U C23U C46U: the self-cleavage turned out to be 0.01. Turning to G2C C10U A26C G36C, the self-cleavage was determined as 0.01. For the variant G2C A12C C18A G27U U34G, the self-cleavage came out at 0.01. In the case of G2C C3U C15G A16U G21U C37A it was 0.11; in that of G2C C3U A25C U38A G40U, 0.1; in that of G2C A16U G17A C37U, 0.07. On to G2C A25U A41G U43G, for which the self-cleavage is 0.01. For G2C C3A C13G A24G G30U C46U, the self-cleavage came to 0.01. Turning to G2A G30C G36A C45U, the self-cleavage amounted to 0.17.

As to G2C A12C A25G G44A, the self-cleavage was 0.01. Regarding G2A U9G C10U G17C, the self-cleavage is 0.1. Consider G2C C3U A14C C18U U20A G33U G35C, for which the self-cleavage stood at 0.05. For G2C A4C G7C C18U U20C, the self-cleavage stood at 0.14. In the case of G2C C3U G7C, the self-cleavage is 0.53. Turning to G2C A6C C15A, the self-cleavage is 0.02.

On to G2C A14U C15U G19C C31U G40A, for which the self-cleavage amounted to 0.13. Take G2C C10A U38A: the self-cleavage came out at 0.01. Turning to G2A G35C C45A, the self-cleavage stood at 0.1.

Regarding G2C A4U C8A U28G G35U, the self-cleavage amounted to 0.13. G2C A14C A26U C45A: the self-cleavage came to 0.19. With G2C C10G C15G, the self-cleavage was 0.03. As to G2C C3A G5A C42G, the self-cleavage was 0.06. As to G2C A6G C37G, the self-cleavage stood at 0.03. Consider G2C A4G C8U U9G A26C C31A, for which the self-cleavage is 0.03. Regarding G2C C8A G22A A26C U28A G33U, the self-cleavage stood at 0.05. In the case of G2C C10G C15A U38C it was 0.01; in that of G2C C10A U32G G33U G36C C37A C45G, 0.02. For G2C C13U A16G, the self-cleavage came out at 0.14. In the case of G2C C8U G27A G36C G44C, the self-cleavage came out at 0.01. In the case of G2C C13U G44A C46A it was 0.06; in that of G2C A4C A24U G30C, 0.08; in that of G2C C8U G22U A24C C37G, 0.06.

As to G2C A4U C8A G27C C31G G40A, the self-cleavage stood at 0.06.

G2C A6G C8U A12G A16U G30C C46A: the self-cleavage was determined as 0.07. Turning to G2C A6G G21C U34C A41G, the self-cleavage stood at 0.03. G2C C13A A16C C37U: the self-cleavage turned out to be 0.01. In the case of G2A U43C G44U it was 0.17; in that of G2C A4C G5A C10G, 0.01. In the case of G2C C13A A25C G30U G36A, the self-cleavage was found to be 0.19. In the case of G2A G36A A39C it was 1.29; in that of G2C A26U C31A U32G G44A, 0.02. Take G2C C13A U20A G36C: the self-cleavage stood at 0.2.

Regarding G2C C10A G35U A41U, the self-cleavage worked out at 0.01.

Turning to G2C C8A U9A C37U A39G C45A, the self-cleavage is 0.05. Regarding G2C A4C A41G C46G, the self-cleavage worked out at 0.02. For G2C C13G A16C, the self-cleavage amounted to 0.08. As to G2C A12G G17A G30C, the self-cleavage worked out at 0.05.

In the case of G2A U20C G33A G40U, the self-cleavage turned out to be 0.15.

In the case of G2C A24C U38C, the self-cleavage is 0.04. In the case of G2C C13A A14C G33U, the self-cleavage worked out at 0.07. As to G2C C10U A11U, the self-cleavage was determined as 0.03. In the case of G2C C3U C18A U20A C31G C37U, the self-cleavage worked out at 0.03.

Consider G2C C10A A11U G35A, for which the self-cleavage stood at 0.03.

For G2C A25U C31A, the self-cleavage amounted to 0.04. For the variant G2A U9C C23U U43A, the self-cleavage amounted to 0.05. For G2C A6C C13A G35C, the self-cleavage is 0.01.

For the variant G2A U9C A11G, the self-cleavage is 0.03. Consider G2C C8A G17U U20C G22U, for which the self-cleavage came out at 0.14. For the variant G2C A11C G40U A41G C42G, the self-cleavage came out at 0.01. As to G2A G33U G36A G44C, the self-cleavage came out at 0.07. Turning to G2C C3A U9G A16U C31A, the self-cleavage was 0. With G2C A6C C18A U28C, the self-cleavage turned out to be 0.02. G2C A12C A25U C45A C46A: the self-cleavage amounted to 0.03.

Turning to G2C C3U A6G C10U G40U, the self-cleavage is 0.03. In the case of G2C C13G A25G U34C A41C C45A, the self-cleavage amounted to 0.05. For G2C C8U C10A G19A the value was 0.01.

As for G2C A6U A26G G36U, the self-cleavage worked out at 0.1. Turning to G2C C13U U20G A26U G27C, the self-cleavage was found to be 0.27. Take G2C A6U U20A A24G: the self-cleavage is 0.4. For G2C A11G G29A G33A A39U the value was 0.02; for G2C C10A C37A, 0.04; for G2C C10A U20C A39U, 0.04. For G2C A11C C31G the value was 0.02; for G2C C13A C15A A25C G27A, 0.05; for G2C A4U G35U, 0.03. In the case of G2C A11C U20A C42U it was 0.02. Consider G2C A12C C13U, for which the self-cleavage worked out at 0.04. For the variant G2C C3A A16C A25G, the self-cleavage was determined as 0. For G2C A14G A26C, the self-cleavage turned out to be 0. With G2A G40U U43A, the self-cleavage amounted to 0.24. For G2C A4C G7C A25U C37U the value was 0.12; for G2A U32G C42G, 0.04; for G2A U9A U43C, 0.09.

As to G2C C3G G7C A11U G33C G35A C45G, the self-cleavage worked out at 0.01.

As to G2A U9C A16C G33C, the self-cleavage worked out at 0.03.

On to G2C C3A G17C C18A G22A, for which the self-cleavage came out at 0.04. In the case of G2C A14C G27A, the self-cleavage was determined as 0.04. As for G2C C10A C37A A39U, the self-cleavage was determined as 0.01.

With G2C A14U A16C G40U, the self-cleavage was 0.46. In the case of G2C A11U A41C it was 0.01; in that of G2C A4G A16G A39C G40U, 0.06. For G2A U9G C18G C45U the value was 0.19; for G2A U9C A11C G22C C23G U34A G35U, 0.02. For G2A G30C C46U, the self-cleavage was determined as 0.25. On to G2A U9C G30A, for which the self-cleavage amounted to 0.02. In the case of G2C C10A C18U G19A G35U it was 0.03; in that of G2C A6C G7A, 0.19; in that of G2C A6C G44C, 0.24.

On to G2C A4U G7U C8U A26C U34A, for which the self-cleavage amounted to 0.59. Regarding G2C A16G G19U, the self-cleavage worked out at 0.05. As for G2A U9G A12C A25G C31A, the self-cleavage worked out at 0.

Consider G2C A12C A14U G27U G29A G35U, for which the self-cleavage was found to be 0. Consider G2C C3A A41C, for which the self-cleavage stood at 0.02. Regarding G2A U9A A16U U34G, the self-cleavage was determined as 0.06.

For the variant G2C A4C G7U A24G G35C, the self-cleavage was determined as 0.13. On to G2C A25G G40C C46G, for which the self-cleavage is 0.01. For G2C A11G A16C C31A G33U, the self-cleavage worked out at 0.01. With G2C A4C C8A U9C C23U G29A U38G G40A C42A, the self-cleavage amounted to 0.02. For G2C A6G C8U A14G G22C G29C G36C C37U, the self-cleavage turned out to be 0. As to G2C C3U G21C, the self-cleavage was 0.18. For G2C C3U G22A G33U the value was 0.18. Regarding G2C A26U A41C, the self-cleavage was found to be 0.17.

As to G2C C3G G22C U28A G30C U38A U43A C46A, the self-cleavage came to 0.01. In the case of G2C C13G A24U G29A U32G C37A, the self-cleavage is 0.02. Regarding G2A G33C G44A, the self-cleavage is 0.12. For G2C A11C U38G the value was 0; for G2A U9A C13U G22A, 0.24; for G2A G40C C46A, 0.05. Turning to G2A U32A G35U, the self-cleavage was 0.13. In the case of G2C C13A G35A G40U, the self-cleavage is 0.02. Consider G2A U20C C42U, for which the self-cleavage stood at 0.11. Regarding G2A U20A G22C C23A, the self-cleavage amounted to 0.58. G2A U20A G29U U32A U38A C46A: the self-cleavage worked out at 0.1.

In the case of G2C C3A C31U, the self-cleavage was 0.05. Take G2C A4U C8A C31G G40C: the self-cleavage was 0.17. Regarding G2A U9C A11U G29U, the self-cleavage came to 0.01. For G2C A6U A24U U28C A39U, the self-cleavage stood at 0.01. As to G2A U20A A24U U28A G29A, the self-cleavage amounted to 1.77. In the case of G2A U9G G33A G40A it was 0.19. Turning to G2A U32G C45G C46G, the self-cleavage came out at 0.1. Take G2C C8G C18G G21U: the self-cleavage came out at 0.04. G2C C8U G21A A24G C46G: the self-cleavage worked out at 0.16. In the case of G2C C3U A4G A11G it was 0.01; in that of G2C A6G C18G, 0.08. On to G2A U9C G21C, for which the self-cleavage turned out to be 0.12. Consider G2A U9A A12G G40U, for which the self-cleavage worked out at 0.12. As for G2C A6U C10A A14U G30U, the self-cleavage came to 0.02. In the case of G2C A24U G40C it was 0.3; in that of G2A U20C G29C U32A, 0.28; in that of G2C A6U A11C C23G G36A U43A, 0.01.

For G2C A4G G30A C42G, the self-cleavage is 1.22.

For G2C C10A U20A G22A, the self-cleavage was determined as 0.01. In the case of G2C A16C A39U, the self-cleavage was 0.03. As to G2C C8G C18U C46A, the self-cleavage turned out to be 0.02.

For the variant G2C A4U C15G, the self-cleavage was determined as 0.01. For the variant G2C A11C U28G, the self-cleavage was 0.02.

Consider G2C A14U U34C C46A, for which the self-cleavage was found to be 0.07. As to G2C A4U C18U A26U, the self-cleavage came out at 0.04.

With G2A U20G G21C G35A A41U, the self-cleavage came out at 0.03. As to G2A U9C G22A C45G, the self-cleavage worked out at 0.06. Regarding G2A U9G C15G U32A C46U, the self-cleavage is 0.04. G2C A12C G30U: the self-cleavage was found to be 0.02.

Regarding G2C C3G A4G C15U A16G G22A G36A C46U, the self-cleavage was 0.04.

G2C C8U U20C C45G: the self-cleavage came out at 0.09. G2A U34C U38A: the self-cleavage is 0.21. Turning to G2C C10G C31G, the self-cleavage is 0.01. In the case of G2A U9C A11G G30A G35A it was 0.03. For G2A U32A C37U the value was 0.1; for G2C A12C G19U A24G, 0.02.
